Test results reported in PubChem BioAssay AID488969 (Vanderbilt High Throughput Screening Facility, 2010).
Over roughly 110,000 compounds, “z-score” has its median near -0.1; the highest 2% begin near 2. The list shows a part of the results. Activity calls are given as the source filed them.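 Rule for the calls: active = z-score in the third read window above 3 or below -3; inactive = the rest.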

Each compound was assayed against Metabotropic glutamate receptor 8 (Rattus norvegicus) (UniProt P70579) (assay: rat mGluR8 modulators via GIRK flux, primary screen, cell-based, thallium flux, HTS (AID 488969)). Conditions: HEK293 rat mGluR8, GIRK (G protein-gated inwardly rectifying potassium channel) thallium flux, FluoZin2; at 10 µM; stronger effect = higher value; submaximal glutamate (EC20) added with thallium.
Sequence of UniProt P70579 (P70579 whole entry, looked up): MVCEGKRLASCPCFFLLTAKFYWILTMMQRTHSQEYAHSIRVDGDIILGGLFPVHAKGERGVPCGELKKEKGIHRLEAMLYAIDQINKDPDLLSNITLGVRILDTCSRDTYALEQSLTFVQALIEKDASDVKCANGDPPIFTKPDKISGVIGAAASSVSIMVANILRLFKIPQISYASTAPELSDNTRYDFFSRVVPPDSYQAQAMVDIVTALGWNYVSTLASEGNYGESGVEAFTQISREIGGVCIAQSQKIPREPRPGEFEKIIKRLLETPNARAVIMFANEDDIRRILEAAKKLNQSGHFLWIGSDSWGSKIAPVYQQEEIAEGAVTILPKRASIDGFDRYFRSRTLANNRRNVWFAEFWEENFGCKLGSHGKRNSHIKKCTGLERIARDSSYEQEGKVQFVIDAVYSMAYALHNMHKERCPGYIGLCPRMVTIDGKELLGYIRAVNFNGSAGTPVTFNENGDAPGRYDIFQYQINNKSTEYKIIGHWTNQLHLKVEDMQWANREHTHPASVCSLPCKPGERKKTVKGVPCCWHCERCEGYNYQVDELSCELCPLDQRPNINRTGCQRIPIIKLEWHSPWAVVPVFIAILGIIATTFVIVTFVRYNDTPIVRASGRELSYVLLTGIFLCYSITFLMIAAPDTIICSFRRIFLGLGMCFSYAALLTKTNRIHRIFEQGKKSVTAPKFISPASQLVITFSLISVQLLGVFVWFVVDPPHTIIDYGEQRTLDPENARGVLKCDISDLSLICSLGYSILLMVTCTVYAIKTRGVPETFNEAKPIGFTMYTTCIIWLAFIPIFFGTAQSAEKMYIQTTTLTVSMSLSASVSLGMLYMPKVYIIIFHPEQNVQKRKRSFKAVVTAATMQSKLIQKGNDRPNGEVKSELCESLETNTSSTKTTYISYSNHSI
`Cc1ccc(S(=O)(=O)NC(CC(C)C)C(=O)Nc2nccs2)cc1` (stereo not drawn) was tested, and the z-score was -0.335. With `CC(=O)c1sc2nc(-c3cccs3)ccc2c1N` the z-score was -0.684. `CCc1ccc(/C=C2/C(=O)N(c3ccccc3)C(=S)N2CC(=O)OC)s1` showed a z-score of -0.103. In the case of `COc1ccc(-c2nn(-c3ccccc3)cc2C2CC(c3cccs3)=NN2C(=O)CCCC(=O)O)cc1` (stereo not drawn), the z-score was -0.298. `O=C1N(c2cccc(Cl)c2)C(c2ccc(Cl)cc2)N2CCCN12` (stereo not drawn) gave a z-score of -0.0961. For `CCOC(=O)CN1N=C(/C=C/c2ccc(OC)cc2)CCC1=O`, the z-score was 0.0234. Work on `CC1(C)Cc2c(sc3c2c(=N)n(Cc2ccco2)c(=O)n3CC(=O)Nc2ccccc2)CO1` yielded a z-score of 0.0148. With `COC(=O)c1c(C(=O)OC)c2n(c1C)CCC2` the z-score was 1.16. For `CCN(CCCNC(=O)C1CCC(=O)N1Cc1ccc(C)cc1)c1cccc(C)c1` (stereo not drawn), the z-score was -0.447. For `CC(=O)NC1C(=O)N=C(SCC(=O)NC2CCCCC2)NC1=O` (stereo not drawn), the z-score was -0.0825. `CCOC(=O)c1ccc(NC(=O)CN2C(=O)C(C)SC(C)C2=O)cc1` (stereo not drawn) showed a z-score of -0.088. `CC1CCCN(C(=O)CSc2nnc3n(C4CCCC4)c(=O)c4ccccc4n23)C1` (stereo not drawn) showed a z-score of -0.217. With `OCCSc1nc2ccccc2n1CCOc1ccccc1` the z-score was -0.0972. Work on `COCCn1c(SCc2c(F)cccc2Cl)nc2c1c(=O)[nH]c(=O)n2C` yielded a z-score of 0.0678. For `CCCCn1c(=N)n(CC(O)COc2cccc(C)c2)c2ccccc21` (stereo not drawn), the z-score was active: 4.52. `CCS(=O)(=O)NCCc1csc(-c2ccccc2)n1` gave a z-score of -0.276. `COC(=O)c1ccc(CN(Cc2ccc(C(=O)OC)o2)C(C)(C)C)o1` gave a z-score of 0.0836. In the case of `CC(C)CC1(C)NC(=O)N(CC(=O)NC(=O)Nc2ccc3c(c2)OCCO3)C1=O` (stereo not drawn), the z-score was 1.27. Compound `CCc1cc(OCCCSc2nc(C)cc(=O)[nH]2)ccc1Cl` has a z-score of -1.02. For `O=C(c1ccccn1)N1N=C2/C(=C/c3ccc(F)cc3)CCCC2C1c1ccc(F)cc1` (stereo not drawn), the z-score was -0.672. Compound `CCc1nnc(NC(=O)c2cc(S(=O)(=O)N(CC)CC)ccc2Cl)s1` has a z-score of -0.0937. For `CCCc1cc(-c2[nH]ncc2-c2ccc(C(=O)OCC)o2)c(O)cc1O`, the z-score was 0.538. With `CCc1ccc(NCc2cc3c(C)nn(-c4ccccc4)c3[nH]c2=O)cc1` the z-score was active: 5.48. `Cc1cccc(-n2c(C)cc(/C=N/O)c2C)c1` gave a z-score of -0.205. `C=CCN1CC(O)=C(c2ccccc2)C1=N` was tested, and the z-score was 0.216. `COc1ccc(-c2n[nH]c3c2C(c2ccc(OC)c(OC)c2)N(c2ccccc2)C3=O)cc1` (stereo not drawn) was tested, and the z-score was -0.609. `Cc1cc(C)c(NC(=O)C2CCCN2C(=O)NC2CCCCC2)c(C)c1` (stereo not drawn) gave a z-score of 1.35. `Cc1ccc(Nc2nc(CSc3nnnn3C)cs2)cc1` showed a z-score of -0.362. `Cn1c(=O)c2c(nc(NCCCN3CCOCC3)n2Cc2ccc(Cl)cc2)n(C)c1=O` gave a z-score of -0.0118. For `O=C(CCNS(=O)(=O)c1c(Cl)cccc1Cl)OCC(=O)c1ccccc1`, the z-score was -0.357. `C#CC[N+](C)(C)CCCCCCCCCCCC` showed a z-score of 0.358. In the case of `Cc1nn(Cc2ccccc2)c(Cl)c1/C=N/NC(=O)c1cccnc1`, the z-score was -0.186. Compound `Cc1ncc([N+](=O)[O-])n1CC(=O)NCc1ccccc1` has a z-score of -0.142. `Cc1ccc(NS(=O)(=O)c2cc(OCC(N)=O)c(C)cc2Cl)cc1` was tested, and the z-score was 0.104. `COc1ccc(-c2c(C)nn(Cc3ccccc3)c2N)cc1` gave a z-score of -0.171. `COc1ccc(Cc2nc(-c3cccs3)no2)cc1OC` showed a z-score of -0.202. In the case of `CC(C)Oc1cccc(-c2cc(C(=O)NC(=S)N(C)c3ccccc3C(=O)O)c3ccccc3n2)c1`, the z-score was 1.26. `CCOc1ccccc1-c1cc(C(=O)N/N=C/c2ccc(O)c(OC)c2)c2ccccc2n1` was tested, and the z-score was -0.512. Work on `CCOC(=O)C(=CNc1ccc(C)cc1C)C(=O)OCC` yielded a z-score of -1.6. `O=C(CNC(=O)c1cccs1)NCC(=O)OCc1ccccc1Cl` showed a z-score of 0.219. `COc1cccc(-n2c(=O)[nH]cc(C(=O)Nc3ccc4c(c3)OCCO4)c2=O)c1` showed a z-score of -0.615. `CC(C)CNC(=O)c1coc(=O)c(Br)c1` gave a z-score of -0.331. `Cc1ccc(CNC(=O)C(=O)NCC(c2ccco2)N2CCOCC2)cc1` (stereo not drawn) gave a z-score of 0.092. For `CC(C)N(CCNC(=O)C1CCC(=O)N1Cc1ccc(F)cc1)Cc1ccccc1` (stereo not drawn), the z-score was -0.0736. `COc1cc(/C=N/NC(=O)CN(CCc2ccccc2)S(=O)(=O)c2ccc(NC(C)=O)cc2)cc(OC)c1OC` was tested, and the z-score was -0.0703. `Cc1ccc(NC(=S)NNC(=O)Cn2nc([N+](=O)[O-])cc2C)cc1` showed a z-score of 0.0242. For `Cc1ccc(NC(=O)COC(=O)CCC(=O)c2ccc(Cl)cc2)cc1S(=O)(=O)N(C)C`, the z-score was active: 3.92. `O=C(CNC(=O)c1ccco1)NCC(=O)OCc1ccccc1Br` showed a z-score of 0.481. `Cc1cccc(NC(=O)C2CC(=O)N(c3ccccc3)C2)c1C` (stereo not drawn) was tested, and the z-score was 0.149. In the case of `Cc1cc(NC(=O)c2ccc(COc3ccc(Cl)c(C)c3)o2)no1`, the z-score was -0.225. `CCS(=O)(=O)Nc1c(C)n(C)n(-c2ccccc2)c1=O` showed a z-score of 0.522. Compound `CCCC(O)(c1ccc(OC)cc1)C(CN(C)C)c1ccccc1` (stereo not drawn) has a z-score of 0.139. In the case of `CCn1c(SCC(=O)c2ccc(O)c(O)c2)nnc1-c1ccccc1`, the z-score was -0.27.
